According to patent US20180292376A1, “DIFFUSION CELL TESTING METHODS CONTAINING BIPHASIC RECEPTOR FLUIDS” (BUFFERAD Illinois Inc. d/b/a Zyleris PharmaTech, Inc., priority 2017, published 2018):
For part of its entries the source gives two or more results. This list holds those alone. There may be further records. Values given together read as repeated measurements on other runs, samples or individuals; one of them may be the mean.

Experiment: In vitro release testing (IVRT), static vertical diffusion cell, synthetic membrane, UV-VIS analysis
Assay type: physicochemical
Settings: 0.5% Xylene Cyanol in Petrolatum, infinite dose, amount released vs square root of time, per run
Experimental: In Vitro Release Testing Method.
Release of pharmaceutically active compounds from semi-solid dosage forms was evaluated in an in vitro model of static vertical diffusion cell using a synthetic membrane model. […] The samples were analyzed using a UV-VIS spectrometer. […]
Test time points: 0, 2, 4, 6, 8, and 10 hours. Each test was conducted in four replicates (N=4). Square root of test time points: 0, 1.41, 2.00, 2.45, 2.83, and 3.16.
Membrane: Polypropylene (pore size: 0.45 micron).
Static vertical diffusion cell parameters: Area of the membrane diffusion area: 0.95 square centimeters.
Dosing level: infinite dose at about 3.0 milliliter of the semi-solid dosage form.
Static vertical diffusion cell consists of a donor and receptor compartment separated by a synthetic membrane. The dosing compartment was for the dosed semi-solid dosage form. […] Before dosing, the diffusion cell was pre-incubated at 32° C. for about 20 to 45 minutes. The t=0 samples were taken after the incubation period prior to dosing.
During the experiment, the receptor fluid was in intimate contact with the membrane through a mixing mechanism, such as, e.g., magnetic stirring bar, or orbit shaker, and maintained at 32° C. using a heating mechanism, such as, e.g., dry heat block, or circulating water bath. […]

SMILES: CCN=C1C=CC(=C(c2ccc(NCC)c(C)c2)c2ccc(S(=O)(=O)[O-])cc2S(=O)(=O)O)C=C1C.[Na+] [Xylene Cyanol]
- Slope (release rate) (receptor fluid: 1-Octanol:H2O 1:1 v:v): 1.9686 mcg/cm2/h^0.5, 2.2516 mcg/cm2/h^0.5, 2.1875 mcg/cm2/h^0.5, 2.4026 mcg/cm2/h^0.5 [columns of one line]
- Slope (release rate) (receptor fluid: 1-Octanol:PBS Buffer pH 7.4 1:1 v:v): 1.1014 mcg/cm2/h^0.5, 1.4283 mcg/cm2/h^0.5, 1.0060 mcg/cm2/h^0.5, 1.0163 mcg/cm2/h^0.5 [columns of one line]
